# Test results reported in patent US10906889B2, “Polycyclic inhibitors of cyclin-dependent kinase 7 (CDK7)” (Dana-Farber Cancer Institute, Inc., priority 2013, dated 2021).
# Molecular target: CDK7/Cyclin H/MAT1 trimeric complex (Homo sapiens, UniProt P50613)
# Assay: Caliper/LabChip EZ Reader CDK7 inhibition assay
# Sequence of UniProt P50613 (P50613 whole entry): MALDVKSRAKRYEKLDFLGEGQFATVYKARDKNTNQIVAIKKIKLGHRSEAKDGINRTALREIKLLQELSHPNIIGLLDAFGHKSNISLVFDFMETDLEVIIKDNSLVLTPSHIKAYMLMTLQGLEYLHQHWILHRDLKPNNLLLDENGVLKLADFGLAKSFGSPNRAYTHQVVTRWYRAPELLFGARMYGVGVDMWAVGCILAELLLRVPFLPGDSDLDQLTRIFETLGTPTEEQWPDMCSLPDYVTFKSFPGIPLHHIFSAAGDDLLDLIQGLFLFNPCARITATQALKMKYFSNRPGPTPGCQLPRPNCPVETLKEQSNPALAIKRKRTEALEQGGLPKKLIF
# Sequence of UniProt P50613 (P51946 whole entry partner): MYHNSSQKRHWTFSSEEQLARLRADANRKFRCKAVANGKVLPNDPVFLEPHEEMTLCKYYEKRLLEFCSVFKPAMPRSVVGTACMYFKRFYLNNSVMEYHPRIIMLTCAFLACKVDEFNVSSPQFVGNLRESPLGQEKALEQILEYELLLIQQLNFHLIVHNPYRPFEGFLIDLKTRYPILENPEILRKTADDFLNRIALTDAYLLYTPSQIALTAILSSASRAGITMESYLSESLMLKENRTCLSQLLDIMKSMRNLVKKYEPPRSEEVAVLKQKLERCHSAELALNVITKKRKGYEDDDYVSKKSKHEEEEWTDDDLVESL
# Sequence of UniProt P50613 (P51948 whole entry partner): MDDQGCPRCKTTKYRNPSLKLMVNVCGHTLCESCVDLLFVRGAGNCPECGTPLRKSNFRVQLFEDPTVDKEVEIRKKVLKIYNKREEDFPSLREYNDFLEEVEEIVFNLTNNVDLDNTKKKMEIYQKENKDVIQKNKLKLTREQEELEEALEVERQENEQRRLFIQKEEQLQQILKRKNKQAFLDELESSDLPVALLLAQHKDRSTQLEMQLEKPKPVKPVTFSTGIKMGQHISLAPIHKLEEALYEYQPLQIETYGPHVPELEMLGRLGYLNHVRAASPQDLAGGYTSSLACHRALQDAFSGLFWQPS
row,SMILES,IC50
1,"C=CC(=O)Nc1cccc(C(=O)N[C@H]2CC[C@H](Nc3ncc(Cl)c(-c4c[nH]c5ccccc45)n3)CC2)c1 [Compound 135, 3-acrylamido-N-((trans)-4-(5-chloro-4-(1H-indol-3-yl)pyrimidin-2-ylamino)cyclohexyl)benzamide]",100 to 1000 nM
2,"C=CC(=O)Nc1cccc(CO[C@H]2CC[C@H](Nc3ncc(Cl)c(-c4c[nH]c5ccccc45)n3)CC2)c1 [Compound 155, N-(3-((((1R,4R)-4-((5-chloro-4-(1H-indol-3-yl)pyrimidin-2-yl)amino)cyclohexyl)oxy)methyl)phenyl)acrylamide]",> 1000 nM
3,C=CC(=O)Nc1ccc(C(=O)N[C@@]2(C)CCC[C@@H](Nc3ncc(Cl)c(-c4c[nH]c5ccccc45)n3)C2)cc1F [Compound 156],> 1000 nM
4,CN(C)C/C=C/C(=O)Nc1ccc(C(=O)N[C@@]2(C)CCC[C@@H](Nc3ncc(Cl)c(-c4c[nH]c5ccccc45)n3)C2)c(F)c1 [Compound 157],100 to 1000 nM
5,CN(C)C/C=C/C(=O)Nc1ccc(C(=O)N[C@H]2CCC[C@@](C)(Nc3ncc(Cl)c(-c4c[nH]c5ccccc45)n3)C2)cc1 [Compound 159],> 1000 nM
6,CN(C)C/C=C/C(=O)Nc1ccc(C(=O)N[C@@]2(C)CCC[C@@H](Nc3ncc(Cl)c(-c4c[nH]c5ccccc45)n3)C2)cc1F [compound 158],< 100 nM
